Source: publication PMC11408250
These are yes or no findings as the source states them, for the method shown. In cells and extracts the contact can be indirect. Some results given as binding are weak or reduced against the parent protein; the word gives no strength. Tags and fused reporters may be left off the sequences shown.

The chains behind the UniProt entries cited, without tags or fusion partners.
UniProt P35222: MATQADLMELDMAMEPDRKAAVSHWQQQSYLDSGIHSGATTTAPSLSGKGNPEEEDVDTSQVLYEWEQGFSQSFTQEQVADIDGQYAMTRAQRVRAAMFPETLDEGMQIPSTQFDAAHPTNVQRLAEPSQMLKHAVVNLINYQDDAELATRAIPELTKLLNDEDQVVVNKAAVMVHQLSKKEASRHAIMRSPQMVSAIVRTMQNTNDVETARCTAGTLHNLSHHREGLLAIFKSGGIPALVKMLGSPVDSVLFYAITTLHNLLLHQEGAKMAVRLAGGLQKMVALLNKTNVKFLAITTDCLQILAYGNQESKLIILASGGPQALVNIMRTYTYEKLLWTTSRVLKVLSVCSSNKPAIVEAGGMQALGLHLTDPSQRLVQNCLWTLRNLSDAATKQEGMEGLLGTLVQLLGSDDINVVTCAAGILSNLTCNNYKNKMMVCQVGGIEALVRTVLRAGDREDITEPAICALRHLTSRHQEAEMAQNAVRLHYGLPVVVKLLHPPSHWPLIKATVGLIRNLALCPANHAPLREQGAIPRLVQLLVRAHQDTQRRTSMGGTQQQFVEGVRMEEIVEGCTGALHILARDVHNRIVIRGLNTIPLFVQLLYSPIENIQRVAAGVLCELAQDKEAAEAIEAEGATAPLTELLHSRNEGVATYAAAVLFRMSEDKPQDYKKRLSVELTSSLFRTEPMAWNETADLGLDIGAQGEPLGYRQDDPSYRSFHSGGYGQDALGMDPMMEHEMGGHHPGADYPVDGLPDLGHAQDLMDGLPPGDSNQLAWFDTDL

Columns and labels:
Assay in all cases: co-IP; HEK293T transfected with Myc-PCDH19-FLAG (isoforms, variants or fragments) and β-catenin-V5, with or without CDH2-HA; anti-FLAG agarose beads 1 hour at 4 °C; Wash Buffer; western blot with anti-Myc, anti-HA and anti-V5
[1] = target: T1, Myc-PCDH19-FLAG p.V441E (+Ex2) (human) (UniProt Q8TAB3)
T1 sequence: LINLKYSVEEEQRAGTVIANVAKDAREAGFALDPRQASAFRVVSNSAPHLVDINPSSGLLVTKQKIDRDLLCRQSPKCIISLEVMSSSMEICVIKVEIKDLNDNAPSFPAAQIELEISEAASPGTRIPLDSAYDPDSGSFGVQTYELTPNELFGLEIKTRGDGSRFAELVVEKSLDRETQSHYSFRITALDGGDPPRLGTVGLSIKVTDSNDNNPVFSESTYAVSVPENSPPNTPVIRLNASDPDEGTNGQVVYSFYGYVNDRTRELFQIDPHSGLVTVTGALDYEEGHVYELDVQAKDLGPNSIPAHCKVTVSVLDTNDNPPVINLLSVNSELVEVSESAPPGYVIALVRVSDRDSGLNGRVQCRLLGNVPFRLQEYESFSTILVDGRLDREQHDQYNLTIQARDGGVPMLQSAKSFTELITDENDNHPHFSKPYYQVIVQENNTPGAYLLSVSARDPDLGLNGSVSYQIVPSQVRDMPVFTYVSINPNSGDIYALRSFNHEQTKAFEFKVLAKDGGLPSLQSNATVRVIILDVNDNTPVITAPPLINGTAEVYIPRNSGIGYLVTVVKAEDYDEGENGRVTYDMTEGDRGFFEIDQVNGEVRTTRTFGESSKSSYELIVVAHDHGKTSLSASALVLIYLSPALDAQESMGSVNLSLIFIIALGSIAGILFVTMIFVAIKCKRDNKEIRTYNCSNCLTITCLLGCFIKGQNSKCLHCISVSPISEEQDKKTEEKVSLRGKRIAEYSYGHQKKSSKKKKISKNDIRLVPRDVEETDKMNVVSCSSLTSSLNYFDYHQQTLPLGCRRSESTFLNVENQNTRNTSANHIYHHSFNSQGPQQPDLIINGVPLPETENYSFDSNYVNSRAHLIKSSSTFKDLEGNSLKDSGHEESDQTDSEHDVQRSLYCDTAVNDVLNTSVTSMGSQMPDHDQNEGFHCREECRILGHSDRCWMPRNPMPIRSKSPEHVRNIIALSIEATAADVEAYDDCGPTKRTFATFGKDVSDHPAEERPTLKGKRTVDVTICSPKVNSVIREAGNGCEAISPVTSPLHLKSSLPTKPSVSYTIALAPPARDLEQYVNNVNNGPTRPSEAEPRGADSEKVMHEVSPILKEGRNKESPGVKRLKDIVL

[2] = target: T2, Myc-PCDH19-EC-FLAG (extracellular fragment of PCDH19) (human) (UniProt Q8TAB3)
T2 sequence: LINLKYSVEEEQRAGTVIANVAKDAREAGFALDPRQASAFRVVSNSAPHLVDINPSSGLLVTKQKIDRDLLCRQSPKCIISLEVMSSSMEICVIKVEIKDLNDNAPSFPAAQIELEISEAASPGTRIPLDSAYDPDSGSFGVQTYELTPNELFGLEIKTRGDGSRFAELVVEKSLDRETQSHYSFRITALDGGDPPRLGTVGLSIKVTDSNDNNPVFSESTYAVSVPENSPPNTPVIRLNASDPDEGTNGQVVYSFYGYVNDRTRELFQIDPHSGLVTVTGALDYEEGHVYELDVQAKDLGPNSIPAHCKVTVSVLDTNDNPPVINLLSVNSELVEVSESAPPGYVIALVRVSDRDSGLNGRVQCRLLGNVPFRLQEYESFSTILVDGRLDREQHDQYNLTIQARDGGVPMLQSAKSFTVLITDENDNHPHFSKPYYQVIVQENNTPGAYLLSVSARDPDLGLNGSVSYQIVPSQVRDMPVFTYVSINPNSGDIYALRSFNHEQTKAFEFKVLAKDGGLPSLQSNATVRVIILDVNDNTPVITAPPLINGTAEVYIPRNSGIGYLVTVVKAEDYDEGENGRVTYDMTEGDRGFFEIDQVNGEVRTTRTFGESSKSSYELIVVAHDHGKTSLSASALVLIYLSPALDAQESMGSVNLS

[3] = target: T3, PCDH19 cytoplasmic domain (CD) fragment, epitope-tagged (human) (UniProt Q8TAB3)
T3 sequence: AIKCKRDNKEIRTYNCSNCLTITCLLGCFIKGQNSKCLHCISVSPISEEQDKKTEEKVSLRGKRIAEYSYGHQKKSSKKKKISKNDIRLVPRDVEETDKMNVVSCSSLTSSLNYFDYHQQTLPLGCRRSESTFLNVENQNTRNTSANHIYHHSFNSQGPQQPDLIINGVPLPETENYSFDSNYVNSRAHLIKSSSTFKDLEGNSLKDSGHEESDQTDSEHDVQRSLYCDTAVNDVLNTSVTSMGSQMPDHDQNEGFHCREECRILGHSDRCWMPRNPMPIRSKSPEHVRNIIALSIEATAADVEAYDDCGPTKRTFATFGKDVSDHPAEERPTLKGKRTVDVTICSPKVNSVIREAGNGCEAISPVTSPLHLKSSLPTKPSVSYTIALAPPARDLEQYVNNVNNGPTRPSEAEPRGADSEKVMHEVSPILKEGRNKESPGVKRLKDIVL

Measured: binding

β-catenin-V5 (from UniProt P35222 1-781)
binds: [1] | [2] | [3]
